Data on 86 sequences can be found in the supplement of paper PMC3334620.

The full ranking holds about 33,000 sequences; the median of “E-score (-0.5 to 0.5)” is about -0.035, and the highest 2% start at about 0.34. The list shows a part of the results.

In this experiment the target is T1, Mot3 (UniProt P54785).
T1 sequence: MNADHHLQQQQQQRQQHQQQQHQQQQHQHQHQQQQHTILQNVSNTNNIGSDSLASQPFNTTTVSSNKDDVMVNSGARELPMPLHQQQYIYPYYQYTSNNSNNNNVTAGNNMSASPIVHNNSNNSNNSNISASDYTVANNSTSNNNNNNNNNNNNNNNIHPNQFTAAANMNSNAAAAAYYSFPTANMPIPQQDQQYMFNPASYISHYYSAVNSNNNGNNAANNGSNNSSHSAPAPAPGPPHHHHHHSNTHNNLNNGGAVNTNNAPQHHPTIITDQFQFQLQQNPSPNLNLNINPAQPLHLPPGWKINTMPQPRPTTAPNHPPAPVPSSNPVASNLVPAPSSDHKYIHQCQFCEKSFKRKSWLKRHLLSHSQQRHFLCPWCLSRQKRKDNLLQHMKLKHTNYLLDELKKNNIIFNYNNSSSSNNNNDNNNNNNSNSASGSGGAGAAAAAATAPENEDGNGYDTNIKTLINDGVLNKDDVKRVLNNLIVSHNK
Description: PBM E-score (8-mer binding enrichment) (E-score (-0.5 to 0.5)); higher = stronger / more preferred TF binding; most listed sequences are background and not binding sites. Conditions: protein concentration: 200 nM; construct: GST-full length. The method in brief:
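E-scores (a modified Wilcoxon-Mann-Whitney statistic) were assigned by the Universal PBM Analysis Suite to every ungapped eight-base word pooled with its reverse complement. The input came from universal all-10-mer Agilent arrays made double-stranded by primer extension and probed with GST-tagged yeast transcription factors at about 100-200 nM. Fluorescent anti-GST detected bound protein, and masliner normalised the scans.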
For the sequence CGTCACGA, the “PBM E-score” value is -0.146.
Under AATGTTGT stands 0.223.
In the case of GTCACGTA, the “PBM E-score” value was 0.198.
Take CTCGCGAG: the “PBM E-score” value was -0.241.
As to AATAGATA, the “PBM E-score” value stood at 0.123.
For the sequence CCGGCGAA, the “PBM E-score” value is -0.103.
Under CGGTCCCA stands -0.296; under ACCCTGTC, -0.0706.
Consider AGTAAGTA, for which the “PBM E-score” value turned out to be 0.107.
With AATCCGGG, the “PBM E-score” value was -0.32.
Take CACGCCGA: the “PBM E-score” value was -0.204.
Consider GTTCCACA, for which the “PBM E-score” value is -0.0582.
GGGCACCA: the “PBM E-score” value worked out at 0.171.
Regarding CGGTCGCA, the “PBM E-score” value was -0.104.
For the sequence CTCTCTAC, the “PBM E-score” value was 0.0332.
Take CCGACACG: the “PBM E-score” value was 0.033.
In the case of ATGGGTGA, the “PBM E-score” value is -0.0127.
For the sequence ATGGTCTC, the “PBM E-score” value was -0.165.
The same measure for ATCGAGCA: -0.158; for ACTGGTTC: -0.0839.
For the sequence CCGCTGCG, the “PBM E-score” value is -0.203.
As to GGAGCCAC, the “PBM E-score” value was -0.278.
For ACTATTAT, the “PBM E-score” value is -0.0178.
Consider CAAATGGG, for which the “PBM E-score” value was -0.0327.
The same measure for CGCAGGCA: 0.482; for ATACGTAA: 0.255; for CCAACCAG: -0.072.
Under CACCTTAC stands -0.00082; under AGGCTCTG, 0.136.
In the case of TAGAAGGA, the “PBM E-score” value was found to be 0.151.
On to AACAGAAC, for which the “PBM E-score” value is -0.0318.
The same measure for AAATGGTG: 0.138; for TCAACTGA: -0.123; for AGGATAGC: 0.00141.
Regarding ACCGTCTG, the “PBM E-score” value was -0.0744.
With ACACATGA, the “PBM E-score” value amounted to 0.288.
Under ATTGATTC stands 0.0464; under ATAGCGTG, 0.125.
As for TATCCAGA, the “PBM E-score” value is -0.0535.
As for CCGGGCCG, the “PBM E-score” value was -0.401.
Turning to ATACAGTC, the “PBM E-score” value was -0.115.
Consider AAAAGGGG, for which the “PBM E-score” value was -0.00488.
For GGAAATAA, the “PBM E-score” value was 0.199.
The same measure for ATCTTCGC: -0.0597.
Turning to ACTGTATC, the “PBM E-score” value is -0.0209.
Regarding AACGCACC, the “PBM E-score” value was 0.0784.
Under ATGGAATG stands -0.0529; under CGAGATAA, 0.0428.
Regarding ATAGGTGC, the “PBM E-score” value is 0.24.
The same measure for TCGTAGAA: 0.0868.
Under AGGCATAG stands 0.274.
Turning to CATTACAG, the “PBM E-score” value turned out to be 0.287.
On to CCCCGGCA, for which the “PBM E-score” value was -0.275.
The same measure for AGCACCTA: 0.199; for CATGACGG: 0.0447.
For CGGGTTAA, the “PBM E-score” value was 0.0785.
For the sequence GGGGTGTA, the “PBM E-score” value was found to be 0.0304.
Regarding CGCCATCA, the “PBM E-score” value was -0.0834.
As for AGAGTGAC, the “PBM E-score” value was -0.313.
On to GTAATTAA, for which the “PBM E-score” value is 0.239.
Take GGTATCTA: the “PBM E-score” value was -0.042.
For CTAACGTA, the “PBM E-score” value came to 0.127.
On to TCATATGA, for which the “PBM E-score” value is -0.0309.
As for ACGCTCTC, the “PBM E-score” value is 0.0108.
On to AAGAACCT, for which the “PBM E-score” value is 0.191.
As to CCCGAGCG, the “PBM E-score” value was -0.228.
Consider GATATAAA, for which the “PBM E-score” value is -0.0039.
In the case of ACGGCAAC, the “PBM E-score” value is 0.106.
Consider GATTATGC, for which the “PBM E-score” value is -0.145.
With ACCCTTGC, the “PBM E-score” value is -0.076.
As to ACACCACA, the “PBM E-score” value was 0.0531.
As for CCTAATGA, the “PBM E-score” value was found to be 0.128.
As for ACTATTGG, the “PBM E-score” value was -0.245.
Consider CTATGTCA, for which the “PBM E-score” value stood at 0.255.
Take ACAACTTG: the “PBM E-score” value amounted to 0.0638.
For the sequence AGGCTTTC, the “PBM E-score” value was determined as 0.119.
Take CGTTGAGA: the “PBM E-score” value is -0.183.
The same measure for GCAGGTCA: 0.0659; for CAGGTCAG: -0.242; for ACACAGAA: 0.154.
For the sequence AACCGGGT, the “PBM E-score” value turned out to be 0.0626.
AGAATTAA: the “PBM E-score” value came out at 0.0616.
Under AATGCCAT stands 0.0283; under AACCGGTT, 0.0054.
In the case of TCCGCCGA, the “PBM E-score” value is -0.0253.
With GGAAACGA, the “PBM E-score” value was 0.0799.
